# Laboratory results as given in patent US20240115549A1, “TREATMENT OF MENTAL DISORDERS” (GH Research Ireland Limited, priority 2022, published 2024).
# Test system: patients with treatment-resistant major depressive disorder (TRD)
# Experiment: Phase 1/2 clinical trial of inhaled 5-MeO-DMT in TRD patients
compound,measurement,setting,value
COc1ccc2[nH]cc(CCN(C)C)c2c1 [5-MeO-DMT],Serious adverse events,Part A,No SAEs were reported
same,"Changes in safety laboratory analyses, vital signs, psychiatric safety assessments, cognitive function",Part A and Part B,No clinically significant changes
same,Patients with at least one ADR,"Part A, 12 mg",3 of 4
same,Patients with at least one ADR,"Part A, 18 mg",3 of 4
same,Serious adverse events,Part B,No SAEs were reported
same,Hypomania induction,TRD patients,no evidence of hypomania induction
